Test results: PubChem BioAssay AID504339 (National Center for Advancing Translational Sciences (NCATS), 2011)
Hit rate of the full screen: of about 390,000 compounds, about 17,000 (4.4%) were called active. Inconclusive results, whose numbers are uncertain, are shown with a selection of clear calls. The call rests on the fitted dose curve; in most records, active means well fitted inhibition curve with a large enough effect; inconclusive means small, poorly fitted or top-dose-only effect; inactive means no such curve, though single readings can be large or run the other way. Potencies of inconclusive entries are doubtful fits and often do not repeat.
Further: nearly all actives have a fitted effect of over 50% in size.
Potency means the concentration at half of the fitted maximal effect; tags describe the fitted curve by direction and shape.

These molecules were tested against Lysine-specific demethylase 4A (Homo sapiens) (UniProt O75164) (assay: qHTS Assay for Inhibitors of JMJD2A-Tudor Domain). Settings: AlphaScreen JMJD2A-Tudor / H3K4me3 peptide binding; series mostly up to 114 µM.
UniProt O75164, sequence (O75164 whole entry, looked up, the tested form may be a part): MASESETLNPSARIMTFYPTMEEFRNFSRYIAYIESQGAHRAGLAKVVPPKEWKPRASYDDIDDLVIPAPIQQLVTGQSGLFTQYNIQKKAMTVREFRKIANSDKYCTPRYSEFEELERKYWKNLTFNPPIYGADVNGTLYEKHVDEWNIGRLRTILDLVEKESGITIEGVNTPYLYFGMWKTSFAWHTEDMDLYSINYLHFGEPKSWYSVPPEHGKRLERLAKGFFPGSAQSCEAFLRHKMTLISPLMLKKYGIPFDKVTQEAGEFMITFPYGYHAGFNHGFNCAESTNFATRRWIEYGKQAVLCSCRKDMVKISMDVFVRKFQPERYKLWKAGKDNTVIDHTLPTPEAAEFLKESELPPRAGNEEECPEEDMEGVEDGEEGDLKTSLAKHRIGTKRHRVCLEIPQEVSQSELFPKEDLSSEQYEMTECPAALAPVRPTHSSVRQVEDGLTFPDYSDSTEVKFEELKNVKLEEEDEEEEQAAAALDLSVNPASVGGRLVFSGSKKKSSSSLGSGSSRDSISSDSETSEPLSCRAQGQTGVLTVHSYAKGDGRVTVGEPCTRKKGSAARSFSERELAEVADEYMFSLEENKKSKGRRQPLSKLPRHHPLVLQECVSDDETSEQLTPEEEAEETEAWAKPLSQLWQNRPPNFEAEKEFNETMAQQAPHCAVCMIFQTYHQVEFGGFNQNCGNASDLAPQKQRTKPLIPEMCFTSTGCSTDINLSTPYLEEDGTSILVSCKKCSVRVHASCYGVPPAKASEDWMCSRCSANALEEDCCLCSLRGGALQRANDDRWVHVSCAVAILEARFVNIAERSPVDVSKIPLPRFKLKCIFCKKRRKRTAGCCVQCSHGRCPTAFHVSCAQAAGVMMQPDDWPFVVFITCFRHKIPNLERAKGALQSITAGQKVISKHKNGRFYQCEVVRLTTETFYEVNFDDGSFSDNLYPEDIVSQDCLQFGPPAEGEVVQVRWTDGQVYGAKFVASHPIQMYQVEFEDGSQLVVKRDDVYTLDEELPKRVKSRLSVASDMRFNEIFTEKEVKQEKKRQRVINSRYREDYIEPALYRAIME
In the case of `CN(Cc1ccc([N+](=O)[O-])cc1)c1ccccc1`, the Potency is reported as inconclusive: 56.2 µM [inhibitor, partial curve].
`CCN1CCN(c2ncnc3sc(C)c(-c4ccccc4)c23)CC1` was tested, and the Potency was “inactive”.
`CCOc1ccc(NC(=O)N2CC=C(c3c[nH]c4ccccc34)CC2)cc1` was tested, and the Potency was inconclusive: 35.5 µM [inhibitor, full curve, poor fit].
`NS(=O)(=O)c1ccc(NC(=S)N2CCN(c3ccccc3Cl)CC2)cc1` was tested, and the Potency was “inactive”.
In the case of `CC(=O)C(Sc1ccc2nnc(-c3ccc(C)cc3)n2n1)C(C)=O`, the Potency is reported as inconclusive: 39.8 µM [inhibitor, single point].
In the case of `O=C(O)c1ccccc1NC(c1ccccc1)c1ccc2cccnc2c1O` (stereo not given), the Potency is reported as active: 28.2 µM.
`COCCCN(C(=O)c1cc(-c2ccco2)nc2ccccc12)c1c(N)n(Cc2ccccc2)c(=O)[nH]c1=O` was tested, and the Potency was inconclusive: 56.2 µM [inhibitor, partial curve].
In the case of `Cc1ccc(C)c(NC(=O)Cn2cc(C(=O)C3CCCCC3)c3ccccc32)c1`, the Potency is reported as “inactive”.
In the case of `C=C(CO)C1Cc2cc(C(C)=O)ccc2O1` (stereo not given), the Potency is reported as inconclusive: 89.1 µM [inhibitor, single point].
For `CCN(CC)CCNC(=O)/C(=N\O)c1ccccn1`, the Potency was inconclusive: 70.8 µM [inhibitor, partial curve].
With `COc1ccccc1NC(=O)CCCCCN1C(=O)c2cccc([N+](=O)[O-])c2C1=O` the Potency was “inactive”.
In the case of `CCCC(c1nnnn1C1CCCCC1)N1CCN(c2ncccn2)CC1` (stereo not given), the Potency is reported as inconclusive: 56.2 µM [inhibitor, partial curve].
With `COc1cc(OC)cc(C(=O)NNc2nc3cc4c(cc3s2)OCO4)c1` the Potency was inconclusive: 12.6 µM [inhibitor, full curve, poor fit].
`COc1ccc(C(CNC(=O)c2c(C)nn(Cc3ccccc3)c2Cl)N2CCOCC2)cc1` (stereo not given) was tested, and the Potency was “inactive”.
With `COC(=O)c1c(-c2ccc(S(C)(=O)=O)cc2)sc2cc(OC)ccc12` the Potency was inconclusive: 22.4 µM [inhibitor, full curve, poor fit].
For `COc1ccc(S(=O)(=O)N(C)C)cc1NC(=O)CCNC(=O)c1ccco1`, the Potency was “inactive”.
`COc1cc(OC)c(NC(=O)CCCn2nc(C)c3sc4ccccc4c3c2=O)cc1Cl` was tested, and the Potency was inconclusive: 50.1 µM [inhibitor, partial curve].
In the case of `Cc1cccc(OCc2n[nH]c(=S)n2-c2ccccc2)c1`, the Potency is reported as inconclusive: 17.8 µM [inhibitor, single point].
`C=CCc1cccc(OC)c1OCCOCCn1ccnc1` was tested, and the Potency was active: 5.01 µM.
With `O=C(CNc1ccccc1)N/N=C/c1ccc2c(c1)OCO2` the Potency was inconclusive: 17.8 µM [inhibitor, full curve].
`CN(C)c1cccc2c(C=C(C#N)C#N)ccc(N(C)C)c12` was tested, and the Potency was active: 15.8 µM.
For `Cc1ccc(S[C@@H](CCN2CC[C@H](O)CCC2=O)c2ccccc2)cc1`, the Potency was inconclusive: 44.7 µM [inhibitor, partial curve].
For `CSCc1ccc(C(=O)NC2CC(C)(C)Cc3c2cnn3-c2ccc(F)cc2)o1` (stereo not given), the Potency was inconclusive: 79.4 µM [inhibitor, partial curve].
In the case of `O=C(C[n+]1cc(Br)cc2ccccc21)c1ccccc1`, the Potency is reported as inconclusive: 44.7 µM [inhibitor, partial curve].
`O=C(/C=C/c1ccc(F)cc1)c1ccc(N2CCOCC2)cc1` was tested, and the Potency was “inactive”.
`COc1ccc(-c2c(-c3ccccc3)c(C(=O)C(=O)NCCCN(C)C)n3ccc4cc(OC)c(OC)cc4c23)cc1OC` was tested, and the Potency was inconclusive: 39.8 µM [inhibitor, partial curve].
`COc1ccc(C2Nc3ccccc3C(=O)N2Cc2cccc(-c3ccccc3)c2)cc1COc1ccc(NC(C)=O)cc1` (stereo not given) was tested, and the Potency was inconclusive: 56.2 µM [inhibitor, partial curve].
`CCC1(C)Nc2ccccc2C(=O)N1O` (stereo not given) was tested, and the Potency was inconclusive: 22.4 µM [inhibitor, full curve, poor fit].
For `COc1ccc(N2CCN(S(=O)(=O)c3ccc(-c4cnc(C5CC5)o4)cc3)CC2)cc1`, the Potency was inconclusive: 100 µM [inhibitor, partial curve].
`Cc1c(CN2CCC(CO)(CCOc3ccccc3)CC2)[nH]c2ccc(Cl)cc12` was tested, and the Potency was active: 50.1 µM.
For `Clc1cccc(CN2CCN(Cc3ccco3)CC2)c1`, the Potency was active: 1.78 µM.
With `CCc1ccc(C(O)(CC(C)C)C(CN2CCOCC2)c2ccccc2)cc1` (stereo not given) the Potency was “inactive”.
In the case of `COc1ccccc1-c1nn2c(=O)cc(CN3CCN(C(=O)/C=C/c4ccccc4)CC3)nc2s1`, the Potency is reported as “inactive”.
With `O=c1[nH]c(/C=C\c2cccs2)nc(O)c1[N+](=O)[O-]` the Potency was inconclusive: 56.2 µM [inhibitor, partial curve].
With `CCOc1c(O)ccc(/C=C2\SC(=S)NC2=O)c1[N+](=O)[O-]` the Potency was inconclusive: 50.1 µM [inhibitor, partial curve].
In the case of `N#C/C(=C\c1ccc(O)c([N+](=O)[O-])c1)c1nc2ccccc2s1`, the Potency is reported as active: 20 µM.
In the case of `COc1ccc(CN(Cc2ccccc2)C(=O)c2ccno2)cc1COc1ccc(NC(C)=O)cc1`, the Potency is reported as inconclusive: 56.2 µM [inhibitor, partial curve].
For `Fc1ccc(-n2c(=S)[nH]c3cccnc32)cc1`, the Potency was active: 15.8 µM.
With `CC1CCc2[nH]c3ccc(C(=O)NCCCOC(C)C)cc3c2C1` (stereo not given) the Potency was inconclusive: 50.1 µM [inhibitor, partial curve].
In the case of `COc1cc(C)c(NC(=S)NCCCN2CCOCC2)cc1OC`, the Potency is reported as “inactive”.
For `Nc1ccc(N2CCCCC2)c(S(=O)(=O)Nc2ccc(Cl)cc2)c1`, the Potency was inconclusive: 56.2 µM [inhibitor, partial curve].
`COCCC(=O)N1CCC(n2nccc2NC(=O)c2ccccc2C)CC1` was tested, and the Potency was inconclusive: 25.1 µM [inhibitor, full curve, poor fit].
For `CCN1C(=O)/C(=C/C2=Cc3ccccc3OC2C)SC1=S` (stereo not given), the Potency was inconclusive: 35.5 µM [inhibitor, partial curve].
`O=C(O)c1ccc2c(=O)n3c(nc2c1)/C(=C/c1ccc(C(F)(F)F)cc1)CC3` was tested, and the Potency was inconclusive: 89.1 µM [inhibitor, partial curve].
`Cc1cc([N+](=O)[O-])c(C)cc1-c1ccc(/C=N/NC(=O)c2cccnc2)o1` was tested, and the Potency was “inactive”.
